Drawing on paper PMC3420880, this text covers binding for two substances.

Sequences of proteins named here, by UniProt entry; tags and fusion partners are left off. A change or cut given only in a name is not applied to a line headed by its entry. A line that says so, or that is headed by a name, gives the form on record, which may keep a tag or linker. Residues count along the entry.
TSHR(W) tagged with eCFP or eYFP at the C-terminal (P47750, residues 22-764): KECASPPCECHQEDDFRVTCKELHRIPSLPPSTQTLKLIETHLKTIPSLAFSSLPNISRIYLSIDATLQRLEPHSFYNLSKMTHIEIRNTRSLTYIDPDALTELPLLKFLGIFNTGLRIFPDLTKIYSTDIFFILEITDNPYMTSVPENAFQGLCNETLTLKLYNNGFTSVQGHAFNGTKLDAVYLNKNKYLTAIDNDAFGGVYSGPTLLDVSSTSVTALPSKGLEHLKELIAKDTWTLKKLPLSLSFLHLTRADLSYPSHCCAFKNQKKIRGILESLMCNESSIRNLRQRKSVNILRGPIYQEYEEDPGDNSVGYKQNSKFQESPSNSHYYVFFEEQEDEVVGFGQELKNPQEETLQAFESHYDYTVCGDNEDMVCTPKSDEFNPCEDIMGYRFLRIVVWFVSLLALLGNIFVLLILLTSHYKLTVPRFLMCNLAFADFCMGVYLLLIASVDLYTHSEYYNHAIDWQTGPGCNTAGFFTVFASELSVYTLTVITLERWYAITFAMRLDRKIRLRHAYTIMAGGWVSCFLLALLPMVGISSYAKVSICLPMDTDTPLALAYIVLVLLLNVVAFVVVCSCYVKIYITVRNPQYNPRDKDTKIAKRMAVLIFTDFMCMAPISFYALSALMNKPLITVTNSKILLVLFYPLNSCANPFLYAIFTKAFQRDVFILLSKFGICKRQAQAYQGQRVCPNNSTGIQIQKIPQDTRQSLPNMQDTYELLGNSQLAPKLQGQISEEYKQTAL
TSHR(M) (P556L) tagged with eCFP or eYFP at the C-terminal (P47750, form named): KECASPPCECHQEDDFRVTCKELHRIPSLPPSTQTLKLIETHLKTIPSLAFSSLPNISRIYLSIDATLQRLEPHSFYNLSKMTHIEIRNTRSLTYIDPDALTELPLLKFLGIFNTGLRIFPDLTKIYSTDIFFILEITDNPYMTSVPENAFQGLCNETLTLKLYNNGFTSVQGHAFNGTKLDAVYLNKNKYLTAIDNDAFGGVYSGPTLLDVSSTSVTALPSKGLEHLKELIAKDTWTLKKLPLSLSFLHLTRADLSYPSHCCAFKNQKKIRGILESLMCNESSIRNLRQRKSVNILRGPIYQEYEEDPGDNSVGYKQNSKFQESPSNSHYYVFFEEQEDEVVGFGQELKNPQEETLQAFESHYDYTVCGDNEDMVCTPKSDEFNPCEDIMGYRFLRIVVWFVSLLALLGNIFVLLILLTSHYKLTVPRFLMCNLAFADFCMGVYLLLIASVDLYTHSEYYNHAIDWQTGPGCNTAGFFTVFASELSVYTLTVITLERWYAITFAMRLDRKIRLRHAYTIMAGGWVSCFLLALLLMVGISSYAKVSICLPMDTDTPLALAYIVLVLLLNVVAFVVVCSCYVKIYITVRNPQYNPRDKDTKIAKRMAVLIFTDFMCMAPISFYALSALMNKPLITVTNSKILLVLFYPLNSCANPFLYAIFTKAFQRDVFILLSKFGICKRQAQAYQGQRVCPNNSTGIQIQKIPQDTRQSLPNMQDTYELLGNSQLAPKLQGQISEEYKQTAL

Results are given in words; binding and its absence hold for the method and conditions named. Binding seen in cells or lysates may run through a third protein. Some results given as binding are weak or reduced against the parent protein; the word gives no strength.

For experiment [1], the target named is TSHR(W) tagged with eCFP or eYFP at the C-terminal (mouse) (UniProt P47750). Description: FRET or BRET; emission FRET in single living HEK 293 cells, eCFP donor and eYFP acceptor, 72 h after transfection, regions of interest from 10 cells; with 1 mU/ml TSH. For orientation: BRET reads energy transfer from a luciferase to a nearby fluorophore.
For experiment [2] the target is unchanged. Description: FRET or BRET; emission FRET in single living HEK 293 cells, eCFP donor and eYFP acceptor, 72 h after transfection, regions of interest from 10 cells; without TSH.
For experiment [3] the target is unchanged. The experiment can be described thus: cross-linking; dimethyl suberimidate 2 mg/ml, 30 min, on TSHR-expressing HEK 293 cells in 10 mM carbonate buffer with 0.15 M NaCl, with or without 1 mU/ml TSH; SDS-PAGE and Western blot with anti-TSHR antibody. In general terms: Immunoblotting shows a protein as a band on a membrane.
In experiment [4] the target is TSHR(M) (P556L) tagged with eCFP or eYFP at the C-terminal (mouse) (UniProt P47750). Description: FRET or BRET; emission FRET in single living HEK 293 cells, eCFP donor and eYFP acceptor, 72 h after transfection, regions of interest from 10 cells; with 1 mU/ml TSH.
For experiment [5] the target is unchanged. The experiment can be described thus: FRET or BRET; emission FRET in single living HEK 293 cells, eCFP donor and eYFP acceptor, 72 h after transfection, regions of interest from 10 cells; without TSH.

Take “TSHR(W) tagged with eCFP or eYFP at the C-terminal (from UniProt P47750 22-764) (receptor)”: the binding result is recorded as “no binding (condition: with 1 mU/ml TSH)” in experiment [1], “binds” in experiment [2] and “binds” in experiment [3].
With “TSHR(M) (P556L) tagged with eCFP or eYFP at the C-terminal (from UniProt P47750 22-764) (receptor)”, the binding entry in experiment [4], in experiment [1], in experiment [5], in experiment [2] and in experiment [3] was “binds” each time.
